The values below come from the supplement of paper PMC11417369.

± gives the standard deviation of the averaged measurements. Some of the results follow.

The assay deals with PfAP2-G AP2 domain (GST-tagged). Briefly: gcPBM binding intensity (ln(normalized median fluorescence intensity)); higher = stronger DNA binding. The essentials:
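An Agilent 4 × 180k array carrying primer-extended double-stranded 36-bp intergenic genomic probes and negative controls received GST-tagged P. falciparum DNA-binding domains expressed in E. coli, about 25 μg on average, for 1 h. The binding buffer contained 1× PBS, 1% milk, 0.2 mg/ml BSA, 0.5% salmon testes DNA and 0.03% Triton X-100. Binding intensity is the top Masliner-normalised natural-log median intensity across replicate spots of either probe orientation, read after Alexa488 anti-GST antibody staining and a 488 nm scan.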
On to “TAAATACATTTATATACACACCTATATATATATATA [CACACA_site5137]”, for which the “gcPBM binding intensity (ln)” value was found to be 10 ± 0.29.

Regarding “TCCAAATGAAAAAATTGTACATATTTTATCATATAT [XGTACX_site6159]”, the “gcPBM binding intensity (ln)” value is 11 ± 0.56.

As to “GGTAGATTATTATTAACGAAAAATGTTTTTAACATA [GTGCAC_negctrl_site216]”, the “gcPBM binding intensity (ln)” value stood at 9.66 ± 0.11.

In the case of “CATATTTTGAACTTCACACATATATATATATATATA [CACACA_site4228]”, the “gcPBM binding intensity (ln)” value came to 10.3 ± 0.54.

“TGTATATATAAAAATATACACACTGTATTATTGTAA [CACACA_site3757]”: the “gcPBM binding intensity (ln)” value was 9.88.

Take “CCTTTCTATTGAAAATGTACATATATATTATTATAT [XGTACX_site5527]”: the “gcPBM binding intensity (ln)” value is 11.1 ± 0.71.

For the sequence “AATAATTGTAGACATGCACACACAAATATTATATAT [CACACA_site8181]”, the “gcPBM binding intensity (ln)” value was 10.2 ± 0.19.

For the sequence “AATAATTGTTATAGTTGTACAATACATATATTACAA [XGTACX_site30]”, the “gcPBM binding intensity (ln)” value turned out to be 11.3 ± 0.63.

With “TATGTTTACATATACGTGCACATGAATGTATACATT [GTGCAC_site9894]”, the “gcPBM binding intensity (ln)” value was 10.4 ± 0.22.

Regarding “ACAAATTGTTAAAGGTGTACAATACATATATAAGAA [XGTACX_site4906]”, the “gcPBM binding intensity (ln)” value is 11.4 ± 0.79.

Turning to “TTTAGCACAAACAAAAAAAAAATAGAAAAAAATATA [CACACA_negctrl_site1772]”, the “gcPBM binding intensity (ln)” value came to 9.705 ± 0.007.

On to “AATATATATACTTTTTTTTTTTTTTTTTTTTTTTTT [CACACA_negctrl_site520]”, for which the “gcPBM binding intensity (ln)” value is 11 ± 0.47.

Turning to AAAGAAAACCAAGTGGTGCATTTTCGTTACTTCATC, the “gcPBM binding intensity (ln)” value came to 9.955 ± 0.049.

As to “CAATGTTACTATAATACACACAATATGTATTTGTCT [CACACA_site6668]”, the “gcPBM binding intensity (ln)” value turned out to be 10.03 ± 0.057.

As for “TTGTTTAACTTGTTAAATATAATGTATCTGTGGATA [GTGCAC_negctrl_site108]”, the “gcPBM binding intensity (ln)” value turned out to be 9.8 ± 0.13.

Turning to “AAATAAAAAATGGAAATCTTAACAAGAATCATTAAC [CACACA_negctrl_site1626]”, the “gcPBM binding intensity (ln)” value came out at 9.69 ± 0.18.

With “AAAAAATAAATAAATAGTACTTTAAAAGAAAAAAAA [XGTACX_site5051]”, the “gcPBM binding intensity (ln)” value is 10.9 ± 0.66.

As for “ATAAAAAATTTAAGTATTTTTTACAAACCTATAAAT [GTGCAC_negctrl_site51]”, the “gcPBM binding intensity (ln)” value was determined as 9.71 ± 0.18.

Turning to “TATACACTTGTAATAACACACATTATTTTTTTTTTT [CACACA_site1324]”, the “gcPBM binding intensity (ln)” value amounted to 9.48 ± 0.43.

Consider “TATATATATATATCCACACACATACATATATTAATA [CACACA_site69]”, for which the “gcPBM binding intensity (ln)” value was 10.4 ± 0.61.

For “TTGGTAATTTTAAAATGTACTTATTATATATATATA [XGTACX_site5642]”, the “gcPBM binding intensity (ln)” value turned out to be 11.3 ± 0.93.

On to “TTATATTTATATGTAATACAAAATAACAAAAAATTT [CACACA_negctrl_site1721]”, for which the “gcPBM binding intensity (ln)” value came out at 9.94 ± 0.18.

As to “AAATTAAAAGAAAATACACACCTGTGGGTGCTTATA [CACACA_site5143]”, the “gcPBM binding intensity (ln)” value came to 10 ± 0.15.

In the case of “TATTTATTCACTTATTGTACTTATATATATAATAAA [XGTACX_site6147]”, the “gcPBM binding intensity (ln)” value was 11.2 ± 0.76.

With “ATTTTTTTTTGTTTAATGTTATGTGGTCATTAAATT [CACACA_negctrl_site1177]”, the “gcPBM binding intensity (ln)” value is 11.1 ± 0.91.

In the case of “TATACACACAGACATGCATGCACATATATATATACA [TGCATGCA_site30]”, the “gcPBM binding intensity (ln)” value amounted to 10.1 ± 0.15.

In the case of “AATTAACCGAAACACACACACATATATATATATATA [CACACA_site3963]”, the “gcPBM binding intensity (ln)” value worked out at 10 ± 0.23.

“ATATATTTTTTTTAGCGTACATGCAAAAAAAAAAAA [XGTACX_site4590]”: the “gcPBM binding intensity (ln)” value was 11.3 ± 0.88.

For “TCATAAATTAAACACACACACACATCTGGATACCCC [CACACA_site9096]”, the “gcPBM binding intensity (ln)” value is 10.6 ± 0.32.

In the case of “TTTTGTTGTTGTTGTTGTACATAAATAATAAAATAT [XGTACX_site8681]”, the “gcPBM binding intensity (ln)” value was 11.3 ± 0.95.

Consider “AAATGATGGAAAAAATAAATTTTTGTACAAAAATTA [CACACA_negctrl_site814]”, for which the “gcPBM binding intensity (ln)” value was 10.8 ± 0.44.

With “TTATAAATATTCTTGGGTACTTAAGATGATATGTAA [XGTACX_site5496]”, the “gcPBM binding intensity (ln)” value is 11.1 ± 0.78.

Turning to “TTATTTTAATAACCTACACACATTTTGTATATTTTA [CACACA_site4000]”, the “gcPBM binding intensity (ln)” value amounted to 9.75 ± 0.16.

Take “AAAAAAAAAAAAAATTGTACAAAAAAAATAAATAAA [XGTACX_site6816]”: the “gcPBM binding intensity (ln)” value turned out to be 10.9 ± 0.46.

For “AAAAAAAAAAAAGAAACACACATATTTATATTTATA [CACACA_site6213]”, the “gcPBM binding intensity (ln)” value came to 9.655 ± 0.049.

Take “TTTTTTTTATTTTAATGTACATTTTTTATTTGTTAT [XGTACX_site7189]”: the “gcPBM binding intensity (ln)” value was 11.1 ± 0.69.

TAATAAAATATGTACGTGCACATAATTATACTAAAA: the “gcPBM binding intensity (ln)” value is 11.5 ± 0.93.

As to “ATATATATATTATTTCGTACATAATTATTTGCCTTA [XGTACX_site350]”, the “gcPBM binding intensity (ln)” value amounted to 10.6 ± 0.49.

CCACGAGAATATATAGTGCATAATAATTTTTTTTTG: the “gcPBM binding intensity (ln)” value was determined as 9.92 ± 0.099.

With “GGTGATAATAAGCATACACACACACCCAAAAAAAAA [CACACA_site8137]”, the “gcPBM binding intensity (ln)” value turned out to be 10.3 ± 0.29.

In the case of “TTTTTTTTGTGGTGTCGTACATATGTTTGTTTTAAG [XGTACX_site1759]”, the “gcPBM binding intensity (ln)” value was 11.3 ± 0.8.

“ACATATATATATATATATATATATATATAATATTTA [CACACA_negctrl_site633]”: the “gcPBM binding intensity (ln)” value was 10.1 ± 0.44.

In the case of “ATTATGCTACAAGGAGAACACACAATTGCCACTTTT [CACACA_site8673]”, the “gcPBM binding intensity (ln)” value was 10.2 ± 0.13.

As for “ATATATATCAGACACACACACATGTTTTAAAACTAT [CACACA_site77]”, the “gcPBM binding intensity (ln)” value was 10.3 ± 0.13.

For the sequence “TAAATTTTTAAATACACACATACACCCATACAGACA [CACACA_site548]”, the “gcPBM binding intensity (ln)” value stood at 10.7 ± 0.53.
